Measured values taken from PMC8406179.
No constants are given. Whether binding was seen depends on the method and setting. In cells and extracts the contact can be indirect. Some entries that bind do so weakly or less than the wild type. For some assays here: Where a sequence is shown, tags or fusion partners need not be part of it.

Protein sequences, listed by entry. Tags and fused reporters are not part of them.
UniProt P03129: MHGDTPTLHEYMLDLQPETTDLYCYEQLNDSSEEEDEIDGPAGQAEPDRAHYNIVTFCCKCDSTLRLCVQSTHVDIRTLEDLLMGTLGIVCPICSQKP

Columns and labels:
[1] = target: FLAG/HA epitope-tagged HPV16 E7 (human papillomavirus type 16) (UniProt P03129); experiment: co-IP; SAOS-2 cells cotransfected with HA-tagged RB1 (1-928, 379-928 or 1-792) and FLAG/HA-tagged MmuPV1 E7 or HPV16 E7; immunoprecipitation with FLAG antibodies, HA immunoblot
[2] = target: FLAG/HA epitope-tagged HPV16 E7 (human papillomavirus type 16) (UniProt P03129); experiment: co-IP; SAOS-2 cells cotransfected with wild-type RB1 or RB1^L and MmuPV1 E7 or HPV16 E7 expression vectors

HA-epitope tagged RB1 truncation mutant 1-792 (lacking the C terminus) (from UniProt P06400 1-792) (domain or fragment)
binding [1]: binds

B1: wild-type RB1 (expression vector, SAOS-2) (protein, UniProt P06400 1-928)
chain: MPPKTPRKTAATAAAAAAEPPAPPPPPPPEEDPEQDSGPEDLPLVRLEFEETEEPDFTALCQKLKIPDHVRERAWLTWEKVSSVDGVLGGYIQKKKELWGICIFIAAVDLDEMSFTFTELQKNIEISVHKFFNLLKEIDTSTKVDNAMSRLLKKYDVLFALFSKLERTCELIYLTQPSSSISTEINSALVLKVSWITFLLAKGEVLQMEDDLVISFQLMLCVLDYFIKLSPPMLLKEPYKTAVIPINGSPRTPRRGQNRSARIAKQLENDTRIIEVLCKEHECNIDEVKNVYFKNFIPFMNSLGLVTSNGLPEVENLSKRYEEIYLKNKDLDARLFLDHDKTLQTDSIDSFETQRTPRKSNLDEEVNVIPPHTPVRTVMNTIQQLMMILNSASDQPSENLISYFNNCTVNPKESILKRVKDIGYIFKEKFAKAVGQGCVEIGSQRYKLGVRLYYRVMESMLKSEEERLSIQNFSKLLNDNIFHMSLLACALEVVMATYSRSTSQNLDSGTDLSFPWILNVLNLKAFDFYKVIESFIKAEGNLTREMIKHLERCEHRIMESLAWLSDSPLFDLIKQSKDREGPTDHLESACPLNLPLQNNHTAADMYLSPVRSPKKKGSTTRVNSTANAETQATSAFQTQKPLKSTSLSLFYKKVYRLAYLRLNTLCERLLSEHPELEHIIWTLFQHTLQNEYELMRDRHLDQIMMCSMYGICKVKNIDLKFKIIVTAYKDLPHAVQETFKRVLIKEEEYDSIIVFYNSVFMQRLKTNILQYASTRPPTLSPIPHIPRSPYKFPSSPLRIPGGNIYISPLKSPYKISEGLPTPTKMTPRSRILVSIGESFGTSEKFQKINQMVCNSDRVLKRSAEGSNPPKPLKKLRFDIEGSDEADGSKHLPGESKFQQKLAEMTSTRTRMQKQKMNDSMDTSNKEEK
binding [2]: binds

B2: HA-epitope tagged full-length RB1 (amino acid residues 1 to 928) (protein, UniProt P06400 1-928)
chain: MPPKTPRKTAATAAAAAAEPPAPPPPPPPEEDPEQDSGPEDLPLVRLEFEETEEPDFTALCQKLKIPDHVRERAWLTWEKVSSVDGVLGGYIQKKKELWGICIFIAAVDLDEMSFTFTELQKNIEISVHKFFNLLKEIDTSTKVDNAMSRLLKKYDVLFALFSKLERTCELIYLTQPSSSISTEINSALVLKVSWITFLLAKGEVLQMEDDLVISFQLMLCVLDYFIKLSPPMLLKEPYKTAVIPINGSPRTPRRGQNRSARIAKQLENDTRIIEVLCKEHECNIDEVKNVYFKNFIPFMNSLGLVTSNGLPEVENLSKRYEEIYLKNKDLDARLFLDHDKTLQTDSIDSFETQRTPRKSNLDEEVNVIPPHTPVRTVMNTIQQLMMILNSASDQPSENLISYFNNCTVNPKESILKRVKDIGYIFKEKFAKAVGQGCVEIGSQRYKLGVRLYYRVMESMLKSEEERLSIQNFSKLLNDNIFHMSLLACALEVVMATYSRSTSQNLDSGTDLSFPWILNVLNLKAFDFYKVIESFIKAEGNLTREMIKHLERCEHRIMESLAWLSDSPLFDLIKQSKDREGPTDHLESACPLNLPLQNNHTAADMYLSPVRSPKKKGSTTRVNSTANAETQATSAFQTQKPLKSTSLSLFYKKVYRLAYLRLNTLCERLLSEHPELEHIIWTLFQHTLQNEYELMRDRHLDQIMMCSMYGICKVKNIDLKFKIIVTAYKDLPHAVQETFKRVLIKEEEYDSIIVFYNSVFMQRLKTNILQYASTRPPTLSPIPHIPRSPYKFPSSPLRIPGGNIYISPLKSPYKISEGLPTPTKMTPRSRILVSIGESFGTSEKFQKINQMVCNSDRVLKRSAEGSNPPKPLKKLRFDIEGSDEADGSKHLPGESKFQQKLAEMTSTRTRMQKQKMNDSMDTSNKEEK
binding [1]: binds

B3: RB1^L mutant (I753A; N757A; M761A), LXCXE binding-defective RB1 (protein, UniProt P06400 1-928)
chain: MPPKTPRKTAATAAAAAAEPPAPPPPPPPEEDPEQDSGPEDLPLVRLEFEETEEPDFTALCQKLKIPDHVRERAWLTWEKVSSVDGVLGGYIQKKKELWGICIFIAAVDLDEMSFTFTELQKNIEISVHKFFNLLKEIDTSTKVDNAMSRLLKKYDVLFALFSKLERTCELIYLTQPSSSISTEINSALVLKVSWITFLLAKGEVLQMEDDLVISFQLMLCVLDYFIKLSPPMLLKEPYKTAVIPINGSPRTPRRGQNRSARIAKQLENDTRIIEVLCKEHECNIDEVKNVYFKNFIPFMNSLGLVTSNGLPEVENLSKRYEEIYLKNKDLDARLFLDHDKTLQTDSIDSFETQRTPRKSNLDEEVNVIPPHTPVRTVMNTIQQLMMILNSASDQPSENLISYFNNCTVNPKESILKRVKDIGYIFKEKFAKAVGQGCVEIGSQRYKLGVRLYYRVMESMLKSEEERLSIQNFSKLLNDNIFHMSLLACALEVVMATYSRSTSQNLDSGTDLSFPWILNVLNLKAFDFYKVIESFIKAEGNLTREMIKHLERCEHRIMESLAWLSDSPLFDLIKQSKDREGPTDHLESACPLNLPLQNNHTAADMYLSPVRSPKKKGSTTRVNSTANAETQATSAFQTQKPLKSTSLSLFYKKVYRLAYLRLNTLCERLLSEHPELEHIIWTLFQHTLQNEYELMRDRHLDQIMMCSMYGICKVKNIDLKFKIIVTAYKDLPHAVQETFKRVLIKEEEYDSIAVFYASVFAQRLKTNILQYASTRPPTLSPIPHIPRSPYKFPSSPLRIPGGNIYISPLKSPYKISEGLPTPTKMTPRSRILVSIGESFGTSEKFQKINQMVCNSDRVLKRSAEGSNPPKPLKKLRFDIEGSDEADGSKHLPGESKFQQKLAEMTSTRTRMQKQKMNDSMDTSNKEEK
binding [2]: no binding

B4: HA-epitope tagged RB1 truncation mutant 379-928 (lacking the amino terminus) (domain or fragment, UniProt P06400 379-928)
chain: MNTIQQLMMILNSASDQPSENLISYFNNCTVNPKESILKRVKDIGYIFKEKFAKAVGQGCVEIGSQRYKLGVRLYYRVMESMLKSEEERLSIQNFSKLLNDNIFHMSLLACALEVVMATYSRSTSQNLDSGTDLSFPWILNVLNLKAFDFYKVIESFIKAEGNLTREMIKHLERCEHRIMESLAWLSDSPLFDLIKQSKDREGPTDHLESACPLNLPLQNNHTAADMYLSPVRSPKKKGSTTRVNSTANAETQATSAFQTQKPLKSTSLSLFYKKVYRLAYLRLNTLCERLLSEHPELEHIIWTLFQHTLQNEYELMRDRHLDQIMMCSMYGICKVKNIDLKFKIIVTAYKDLPHAVQETFKRVLIKEEEYDSIIVFYNSVFMQRLKTNILQYASTRPPTLSPIPHIPRSPYKFPSSPLRIPGGNIYISPLKSPYKISEGLPTPTKMTPRSRILVSIGESFGTSEKFQKINQMVCNSDRVLKRSAEGSNPPKPLKKLRFDIEGSDEADGSKHLPGESKFQQKLAEMTSTRTRMQKQKMNDSMDTSNKEEK
binding [1]: binds
